This passage reports binding results from PMC4414544.

The chains behind the UniProt entries cited, without tags or fusion partners. Where a name states a change or a piece, a line headed by the entry shows the natural chain unless it says otherwise.
UniProt P63073: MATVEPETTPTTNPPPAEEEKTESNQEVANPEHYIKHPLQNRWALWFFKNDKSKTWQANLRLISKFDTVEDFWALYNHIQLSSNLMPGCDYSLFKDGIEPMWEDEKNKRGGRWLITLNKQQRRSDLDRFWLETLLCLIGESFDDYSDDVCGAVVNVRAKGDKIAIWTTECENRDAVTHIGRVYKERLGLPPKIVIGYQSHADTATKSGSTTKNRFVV
UniProt P06730: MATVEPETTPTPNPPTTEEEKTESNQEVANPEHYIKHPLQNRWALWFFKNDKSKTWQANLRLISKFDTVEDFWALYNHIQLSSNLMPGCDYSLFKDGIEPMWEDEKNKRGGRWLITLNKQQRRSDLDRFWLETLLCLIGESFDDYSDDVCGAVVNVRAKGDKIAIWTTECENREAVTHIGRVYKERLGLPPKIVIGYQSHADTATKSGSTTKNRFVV

The target of test [1] is endogenous eIF4E of mouse embryonic fibroblasts (mouse (endogenous in MEFs)) (UniProt P63073). The experiment in a line: co-IP; eIF4E antibody, lysates of MEF WT and MEF Mnk1/2 KO, normal conditions; blot for 4E-T.
Test [2] concerns the target Myc-tagged eIF4E-W73A/S209D (UniProt P06730). Nature of the test: co-IP; anti-Myc tag antibody precipitates exogenous Myc-eIF4E mutants from MDA-MB-231 lysate, normal conditions; Protein G Sepharose, 4°C; lysis buffer 250 mM Tris-HCl, 150 mM NaCl, 1% Triton X-100, 5 mM EDTA; blot for 4E-T.
Test [3] concerns the target Myc-tagged phosphomimetic eIF4E-S209D (UniProt P06730). Described as above.
In test [4] the target is Myc-tagged phospho-dead eIF4E-S209A (UniProt P06730). Described as above.
In a further test the target is Myc-tagged eIF4E-W73A (UniProt P06730). Described as above.
Test [5] addresses endogenous phospho-eIF4E (Ser-209) of MDA-MB-231 cells (human (endogenous in MDA-MB-231)) (UniProt P06730). The experiment in a line: co-IP; immunoprecipitation of endogenous peIF4E from MDA-MB-231 lysate two hours after arsenite treatment; blot for 4E-T.
In test [6] the target is endogenous eIF4E (total) of MDA-MB-231 cells (human (endogenous in MDA-MB-231)) (UniProt P06730). Nature of the test: co-IP; endogenous eIF4E precipitated with the phospho-specific antibody of eIF4E or with total eIF4E antibody from MDA-MB-231 lysate; cells treated with arsenite with or without CGP 57380; blot for 4E-T.
Test [7] deals with endogenous phospho-eIF4E (Ser-209) of MDA-MB-231 cells (human (endogenous in MDA-MB-231)) (UniProt P06730). The test is described as above.

These are yes or no findings as the source states them, for the method shown. In cells and extracts the contact can be indirect. Some entries that bind do so weakly or less than the wild type.

B1: endogenous 4E-T of mouse embryonic fibroblasts (protein, UniProt Q9EST3 1-983)
chain: MEKSVAETENGDAFLELKKLPTSKSPHRYTKEELLDIKERPYSKQRPSCLSEKYDSDGVWDPEKWHASLYPASGRSSPVESLKKESESDRPSLVRRIADPRERVKEDDLDVVLSPQRRSFGGGCHVTAAVSSRRSGSPLEKDSDGLRLLGGRRIGSGRIISARAFEKDHRLSDKDLRDLRDRDRERDYKDKRFRREFGDSKRVFGERRRNDSYTEEEPEWFSAGPTSQSETIELTGFDDKILEEDHKGRKRTRRRTASVKEGIVECNGGVAEEDEVEVILAQEPSADQEVPRDVILPEQSPGEFDFNEFFNLDKVPCLASMIEDVLGEGSVSASRFSRWFSNPSRSGSRSSSLGSTPHEELERLAGLEQAVLSPGQNSGNYFAPIPSEDHAENKVDILEMLQKAKVDLKPLLSSLSANKEKLKESSHSGVVLSVEEVEAGLKGLKVDQQMKNSTPFMAEHLEETLSAASSNRQLKKDGDMTAFNKLVNTMKASGTLPTQPKVSRNVESHLLAPAEIPGQPVSKNILQELLGQPVQRPASSNLLSGLMGSLEATASLLSQRAPSPPMSQVFRTQAASADYLHPRIPSPIGFPSGPQQLLGDPFQGMRKPMSPVSAQMSQLELQQAALEGLALPHDLAVQTAPFYQPGFSKPQVDRTRDGLRNRQQRMSKSPAPMHGGNSSSPAPAASITSMLSPSFTPTSVIRKMYESREKTKEEMAPGMVVPGDGKEDTQKTSEENLLSSNPIPNTDQDSSTTNPKLSTLQRSSCSTPLSQTSRYTKEQDYRPKTAGRKTPTLASPVPGTPFLRPTHQVPLVPHVPIVRPAHQLHPGLVQRLIAQGVHPQHLPSLLQAGVLPPGIDMAPLQGLSGPLLGQPLYPLVSAASHPLLNPRPGTPLHLAVMQQQLQRSVLHPPGSSSQAAAISVQTPQNVPSRSGMPHMHSQLEHRTSQRSSSPVGLAKWFGSDVLQQPLPSMPTKVISVDELEYRQ
With B1, the binding entry in test [1] is “binds”.

B2: 4E-T (eukaryotic translation initiation factor 4E nuclear import factor 1, EIF4ENIF1), endogenous in MDA-MB-231 (protein, UniProt Q9NRA8 1-985)
chain: MDRRSMGETESGDAFLDLKKPPASKCPHRYTKEELLDIKELPHSKQRPSCLSEKYDSDGVWDPEKWHASLYPASGRSSPVESLKKELDTDRPSLVRRIVDPRERVKEDDLDVVLSPQRRSFGGGCHVTAAVSSRRSGSPLEKDSDGLRLLGGRRIGSGRIISARTFEKDHRLSDKDLRDLRDRDRERDFKDKRFRREFGDSKRVFGERRRNDSYTEEEPEWFSAGPTSQSETIELTGFDDKILEEDHKGRKRTRRRTASVKEGIVECNGGVAEEDEVEVILAQEPAADQEVPRDAVLPEQSPGDFDFNEFFNLDKVPCLASMIEDVLGEGSVSASRFSRWFSNPSRSGSRSSSLGSTPHEELERLAGLEQAILSPGQNSGNYFAPIPLEDHAENKVDILEMLQKAKVDLKPLLSSLSANKEKLKESSHSGVVLSVEEVEAGLKGLKVDQQVKNSTPFMAEHLEETLSAVTNNRQLKKDGDMTAFNKLVSTMKASGTLPSQPKVSRNLESHLMSPAEIPGQPVPKNILQELLGQPVQRPASSNLLSGLMGSLEPTTSLLGQRAPSPPLSQVFQTRAASADYLRPRIPSPIGFTPGPQQLLGDPFQGMRKPMSPITAQMSQLELQQAALEGLALPHDLAVQAANFYQPGFGKPQVDRTRDGFRNRQQRVTKSPAPVHRGNSSSPAPAASITSMLSPSFTPTSVIRKMYESKEKSKEEPASGKAALGDSKEDTQKASEENLLSSSSVPSADRDSSPTTNSKLSALQRSSCSTPLSQANRYTKEQDYRPKATGRKTPTLASPVPTTPFLRPVHQVPLVPHVPMVRPAHQLHPGLVQRMLAQGVHPQHLPSLLQTGVLPPGMDLSHLQGISGPILGQPFYPLPAASHPLLNPRPGTPLHLAMVQQQLQRSVLHPPGSGSHAAAVSVQTTPQNVPSRSGLPHMHSQLEHRPSQRSSSPVGLAKWFGSDVLQQPLPSMPAKVISVDELEYRQ
With B2, the binding entry in test [2] is reported as “no binding”; in test [3], “binds”; in test [4], “no binding”; in the test with Myc-tagged eIF4E-W73A, “no binding”; in test [5], “no binding (condition: two hours after arsenite treatment)”; in test [6], “binds”. For the same molecule, in test [7], the binding result was “binds”.
